# In paper PMC12820563:
# This is one part of the list. The list includes weakly bound sequences.
# Biological target: T1, MBP-FoxP3dN (UniProt Q99JB6)
# T1 sequence: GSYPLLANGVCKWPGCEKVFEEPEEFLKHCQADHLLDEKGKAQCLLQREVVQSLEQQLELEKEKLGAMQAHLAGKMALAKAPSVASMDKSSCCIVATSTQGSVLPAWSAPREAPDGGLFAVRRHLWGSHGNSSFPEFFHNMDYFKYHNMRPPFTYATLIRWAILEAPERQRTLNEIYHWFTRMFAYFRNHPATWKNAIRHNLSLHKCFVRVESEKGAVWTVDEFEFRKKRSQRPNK
# Assay: PD-seq (MBP pull-down with sequencing)
# Conditions: 20 mM Tris-HCl pH 7.5, 100 mM NaCl, 1.5 mM MgCl2, 0.4 uM protein, 0.1 uM dsDNA library, 30 min, room temperature, amylose pull-down; high values mean tight binding; double strand, one strand shown
row,Sequence,binding signal (RPM ratio (pull-down/input))
1,GATGATTGTTCTCCCAGCTGATGAATTCACACGGTCGAGTAAACAAATTTTCCTAATCTTTCTGTTCAAGCGCCATCTAC,0.272
2,GATGATTGTTCTCCCAGCTGATGAATTTTGTGTCTCGAGTAAACAAATTTTCCTAATCTTTCTGTTCAAGCGCCATCTAC,4.27
3,GATGATTGTTCTCCCAGCTGATGAATTCACAACTTCGAGTAAACAAATTTTCCTAATCTTTCTGTTCAAGCGCCATCTAC,0.55
4,GATGATTGTTCTCCCAGCTGATGAATTGTTACATTCGAGTAAACAAATTTTCCTAATCTTTCTGTTCAAGCGCCATCTAC,1.25
5,GATGATTGTTCTCCCAGCTGATGAATTTCTTTGGTCGAGTAAACAAATTTTCCTAATCTTTCTGTTCAAGCGCCATCTAC,1.03
6,GATGATTGTTCTCCCAGCTGATGAATTAGTAACGTCGAGTAAACAAATTTTCCTAATCTTTCTGTTCAAGCGCCATCTAC,0.582
7,GATGATTGTTCTCCCAGCTGATGAATTTTCTTGTTCGAGTAAACAAATTTTCCTAATCTTTCTGTTCAAGCGCCATCTAC,0.568
8,GATGATTGTTCTCCCAGCTGATGAATTCGACAGCTCGAGTAAACAAATTTTCCTAATCTTTCTGTTCAAGCGCCATCTAC,0.304
9,GATGATTGTTCTCCCAGCTGATGAATTCGAGTCTTCGAGTAAACAAATTTTCCTAATCTTTCTGTTCAAGCGCCATCTAC,0.542
10,GATGATTGTTCTCCCAGCTGATGAATTTGGTTCCTCGAGTAAACAAATTTTCCTAATCTTTCTGTTCAAGCGCCATCTAC,1.55
11,GATGATTGTTCTCCCAGCTGATGAATTGGCCATATCGAGTAAACAAATTTTCCTAATCTTTCTGTTCAAGCGCCATCTAC,0.558
12,GATGATTGTTCTCCCAGCTGATGAATTGACTTTTTCGAGTAAACAAATTTTCCTAATCTTTCTGTTCAAGCGCCATCTAC,0.406
13,GATGATTGTTCTCCCAGCTGATGAATTCCGTCTATCGAGTAAACAAATTTTCCTAATCTTTCTGTTCAAGCGCCATCTAC,0.882
14,GATGATTGTTCTCCCAGCTGATGAATTATGACCTTCGAGTAAACAAATTTTCCTAATCTTTCTGTTCAAGCGCCATCTAC,0.451
15,GATGATTGTTCTCCCAGCTGATGAATTCACGTTCTCGAGTAAACAAATTTTCCTAATCTTTCTGTTCAAGCGCCATCTAC,0.522
16,GATGATTGTTCTCCCAGCTGATGAATTTTTGTCATCGAGTAAACAAATTTTCCTAATCTTTCTGTTCAAGCGCCATCTAC,0.666

row,Sequence,binding signal (RPM ratio (pull-down/input))
1,GATGATTGTTCTCCCAGCTGATGAATTAGACGGTTCGAGTAAACAAATTTTCCTAATCTTTCTGTTCAAGCGCCATCTAC,0.354
2,GATGATTGTTCTCCCAGCTGATGAATTTCCTGGATCGAGTAAACAAATTTTCCTAATCTTTCTGTTCAAGCGCCATCTAC,0.15
3,GATGATTGTTCTCCCAGCTGATGAATTAACTATATCGAGTAAACAAATTTTCCTAATCTTTCTGTTCAAGCGCCATCTAC,0.384
4,GATGATTGTTCTCCCAGCTGATGAATTCATGAACTCGAGTAAACAAATTTTCCTAATCTTTCTGTTCAAGCGCCATCTAC,0.336
5,GATGATTGTTCTCCCAGCTGATGAATTACGTGAGTCGAGTAAACAAATTTTCCTAATCTTTCTGTTCAAGCGCCATCTAC,0.542
6,GATGATTGTTCTCCCAGCTGATGAATTCCTGTCTTCGAGTAAACAAATTTTCCTAATCTTTCTGTTCAAGCGCCATCTAC,0.333
7,GATGATTGTTCTCCCAGCTGATGAATTTTAACCTTCGAGTAAACAAATTTTCCTAATCTTTCTGTTCAAGCGCCATCTAC,0.272
8,GATGATTGTTCTCCCAGCTGATGAATTGGCGGATTCGAGTAAACAAATTTTCCTAATCTTTCTGTTCAAGCGCCATCTAC,0.344
9,GATGATTGTTCTCCCAGCTGATGAATTGTGGATCTCGAGTAAACAAATTTTCCTAATCTTTCTGTTCAAGCGCCATCTAC,0.687
10,GATGATTGTTCTCCCAGCTGATGAATTGGAATGATCGAGTAAACAAATTTTCCTAATCTTTCTGTTCAAGCGCCATCTAC,0.358
11,GATGATTGTTCTCCCAGCTGATGAATTAACTGGTTCGAGTAAACAAATTTTCCTAATCTTTCTGTTCAAGCGCCATCTAC,0.341
12,GATGATTGTTCTCCCAGCTGATGAATTTCCTGCTTCGAGTAAACAAATTTTCCTAATCTTTCTGTTCAAGCGCCATCTAC,0.253
13,GATGATTGTTCTCCCAGCTGATGAATTATCTCCCTCGAGTAAACAAATTTTCCTAATCTTTCTGTTCAAGCGCCATCTAC,0.252
14,GATGATTGTTCTCCCAGCTGATGAATTCTCGCACTCGAGTAAACAAATTTTCCTAATCTTTCTGTTCAAGCGCCATCTAC,0.545
15,GATGATTGTTCTCCCAGCTGATGAATTTGTGTCCTCGAGTAAACAAATTTTCCTAATCTTTCTGTTCAAGCGCCATCTAC,5.41
16,GATGATTGTTCTCCCAGCTGATGAATTATGAGTATCGAGTAAACAAATTTTCCTAATCTTTCTGTTCAAGCGCCATCTAC,1.18
